# T1: human LAG-3 (LAG-3 effector Jurkat T cells) (human, UniProt P18627 23-525)
# T1 sequence (looked up): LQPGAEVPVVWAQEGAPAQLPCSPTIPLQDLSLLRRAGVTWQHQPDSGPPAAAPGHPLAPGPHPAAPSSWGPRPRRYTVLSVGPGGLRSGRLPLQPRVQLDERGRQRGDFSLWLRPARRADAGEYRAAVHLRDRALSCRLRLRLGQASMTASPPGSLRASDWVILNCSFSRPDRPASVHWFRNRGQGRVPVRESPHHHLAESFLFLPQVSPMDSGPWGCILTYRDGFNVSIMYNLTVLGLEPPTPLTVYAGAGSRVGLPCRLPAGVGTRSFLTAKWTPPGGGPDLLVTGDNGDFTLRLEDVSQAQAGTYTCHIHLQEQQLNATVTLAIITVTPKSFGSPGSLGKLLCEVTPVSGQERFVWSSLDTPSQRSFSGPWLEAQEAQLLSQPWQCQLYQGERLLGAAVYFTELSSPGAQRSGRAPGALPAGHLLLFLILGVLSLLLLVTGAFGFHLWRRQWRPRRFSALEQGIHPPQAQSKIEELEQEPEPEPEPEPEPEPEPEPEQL
# Assays:
# [1] = target: human PD-L1 (PD-L1 aAPC/CHO-K1 cells) (human, UniProt Q9NZQ7); assay: cell-based or functional assay
# [2] = target: T1, human LAG-3 (LAG-3 effector Jurkat T …); assay: cell-based or functional assay
# UniProt Q9NZQ7, sequence (Q9NZQ7 19-290): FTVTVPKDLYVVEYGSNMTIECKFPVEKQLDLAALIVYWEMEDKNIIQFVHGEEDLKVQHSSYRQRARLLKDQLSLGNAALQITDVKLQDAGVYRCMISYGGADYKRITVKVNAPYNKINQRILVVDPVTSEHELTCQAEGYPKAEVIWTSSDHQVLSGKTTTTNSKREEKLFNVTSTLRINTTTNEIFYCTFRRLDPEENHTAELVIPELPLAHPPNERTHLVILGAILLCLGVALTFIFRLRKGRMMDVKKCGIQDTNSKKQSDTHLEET
Bottom (PD-1/PD-L1 blockade bioassay) [1],Log EC50 (PD-1/PD-L1 blockade bioassay) [1],Top (PD-1/PD-L1 blockade bioassay) [1],Bottom (LAG-3 blockade bioassay) [2],Log EC50 (LAG-3 blockade bioassay) [2],Top (LAG-3 blockade bioassay) [2],Binder
28200,-0.0241,112000,359000,0.989,752000,"sLAG3-E-mPDL1HCv1 (bispecific antibody, human IgG1, kappa) heavy: EVQLVESGGGLVQPGGSLRLSCAASGYTVSSYCMGWFRQAPGKGREGVSAIDSDGSVSYADSVKGRFTISKDNSKNTLYLQMNSLRAEDTAVYFCAADLCWVDQDQGEYNTWGQGTLVTVSSEPKSSDKTHTSPPSPEVQLVQSGAEVKKPGASVKVSCKASGYIFTGYGITWVRQAPGQGLEWMGEIFPRRVQTYYSEKFKGRVTMTTDTSTSTAYMELRSLRSDDTAVYYCARDYDPYFALDYWGQGTTVTVSSASTKGPSVFPLAPSSKSTSGGTAALGCLVKDYFPEPVTVSWNSGALTSGVHTFPAVLQSSGLYSLSSVVTVPSSSLGTQTYICNVNHKPSNTKVDKKV[letters of human IgG1 Fc with changes not shown] light: DIQMTQSPSSLSASVGDRVTITCRASQDVSTAVDWYQQKPGKAPKLLIYSASYRYTGVPDRFSGSGSGTDFTFTISSLQPEDIATYYCQQHYSIPFTFGQGTKLEIKRTVAAPSVFIFPPSDEQLKSGTASVVCLLNNFYPREAKVQWKVDNALQSGNSQESVTEQDSKDSTYSLSSTLTLSKADYEKHKVYACEVTHQGLSSPVTKSFNRGEC"
28400,-0.483,109000,381000,1.14,753000,"mPDL1HCv1-E-sLAG3 (bispecific antibody, human IgG1, kappa) heavy: EVQLVQSGAEVKKPGASVKVSCKASGYIFTGYGITWVRQAPGQGLEWMGEIFPRRVQTYYSEKFKGRVTMTTDTSTSTAYMELRSLRSDDTAVYYCARDYDPYFALDYWGQGTTVTVSSASTKGPSVFPLAPSSKSTSGGTAALGCLVKDYFPEPVTVSWNSGALTSGVHTFPAVLQSSGLYSLSSVVTVPSSSLGTQTYICNVNHKPSNTKVDKKV[letters of human IgG1 Fc with changes not shown]EPKSSDKTHTSPPSPEVQLVESGGGLVQPGGSLRLSCAASGYTVSSYCMGWFRQAPGKGREGVSAIDSDGSVSYADSVKGRFTISKDNSKNTLYLQMNSLRAEDTAVYFCAADLCWVDQDQGEYNTWGQGTLVTVSS light: DIQMTQSPSSLSASVGDRVTITCRASQDVSTAVDWYQQKPGKAPKLLIYSASYRYTGVPDRFSGSGSGTDFTFTISSLQPEDIATYYCQQHYSIPFTFGQGTKLEIKRTVAAPSVFIFPPSDEQLKSGTASVVCLLNNFYPREAKVQWKVDNALQSGNSQESVTEQDSKDSTYSLSSTLTLSKADYEKHKVYACEVTHQGLSSPVTKSFNRGEC"

# Further lines, the binder ahead of its results:
Binder,Bottom (PD-1/PD-L1 blockade bioassay) [1],Log EC50 (PD-1/PD-L1 blockade bioassay) [1],Top (PD-1/PD-L1 blockade bioassay) [1],Bottom (LAG-3 blockade bioassay) [2],Log EC50 (LAG-3 blockade bioassay) [2],Top (LAG-3 blockade bioassay) [2]
"mPDL1LCv1-E-sLAG3-HCv1 (bispecific antibody, human IgG1, kappa) light: DIQMTQSPSSLSASVGDRVTITCRASQDVSTAVDWYQQKPGKAPKLLIYSASYRYTGVPDRFSGSGSGTDFTFTISSLQPEDIATYYCQQHYSIPFTFGQGTKLEIKRTVAAPSVFIFPPSDEQLKSGTASVVCLLNNFYPREAKVQWKVDNALQSGNSQESVTEQDSKDSTYSLSSTLTLSKADYEKHKVYACEVTHQGLSSPVTKSFNRGECEPKSSDKTHTSPPSPEVQLVESGGGLVQPGGSLRLSCAASGYTVSSYCMGWFRQAPGKGREGVSAIDSDGSVSYADSVKGRFTISKDNSKNTLYLQMNSLRAEDTAVYFCAADLCWVDQDQGEYNTWGQGTLVTVSS heavy: EVQLVQSGAEVKKPGASVKVSCKASGYIFTGYGITWVRQAPGQGLEWMGEIFPRRVQTYYSEKFKGRVTMTTDTSTSTAYMELRSLRSDDTAVYYCARDYDPYFALDYWGQGTTVTVSSASTKGPSVFPLAPSSKSTSGGTAALGCLVKDYFPEPVTVSWNSGALTSGVHTFPAVLQSSGLYSLSSVVTVPSSSLGTQTYICNVNHKPSNTKVDKKV[letters of human IgG1 Fc with changes not shown]",30200,0.141,116000,339000,1.75,908000
"mPDL1LCv1-E-sLAG3-HCv5 (bispecific antibody, human IgG1, kappa) light: DIQMTQSPSSLSASVGDRVTITCRASQDVSTAVDWYQQKPGKAPKLLIYSASYRYTGVPDRFSGSGSGTDFTFTISSLQPEDIATYYCQQHYSIPFTFGQGTKLEIKRTVAAPSVFIFPPSDEQLKSGTASVVCLLNNFYPREAKVQWKVDNALQSGNSQESVTEQDSKDSTYSLSSTLTLSKADYEKHKVYACEVTHQGLSSPVTKSFNRGECEPKSSDKTHTSPPSPEVQLVESGGGLVQPGGSLRLSCAASGYTVSSYCMGWFRQAPGKGREGVSAIDSDGSVSYADSVKGRFTISKDNSKNTLYLQMNSLRAEDTAVYFCAADLCWVDQDQGEYNTWGQGTLVTVSS heavy: EVQLVQSGAEVKKPGASVKVSCKASGYIFTGYGITWVRQAPGQGLEWMGEIFPRRVQTYYSEKFKGRVTMTADTSTSTAYMELRSLRSDDTAVYYCARDYDPYFALDYWGQGTTVTVSSASTKGPSVFPLAPSSKSTSGGTAALGCLVKDYFPEPVTVSWNSGALTSGVHTFPAVLQSSGLYSLSSVVTVPSSSLGTQTYICNVNHKPSNTKVDKKV[letters of human IgG1 Fc with changes not shown]",26300,-0.245,116000,328000,1.15,754000

# Reference: patent publication US20220220204A1 (NANJING GENSCRIPT BIOTECH, published 2022)
